Measurements as given in publication PMC9911399, “Two distinct binding modes provide the RNA-binding protein RbFox with extraordinary sequence specificity”.
Where a chain is given by its changes, count along the chain named. The list shows a part of the results.

T1: RBFOX1 RRM RbFoxmut (Fox-RRM*) (Homo sapiens, UniProt Q9NWB1 109-208, R118D;E147R;N151S;E152T)
T1 sequence: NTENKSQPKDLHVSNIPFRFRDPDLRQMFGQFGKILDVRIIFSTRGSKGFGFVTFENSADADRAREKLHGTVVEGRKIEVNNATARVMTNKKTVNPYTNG

B1: CCUGGCC (DNA:RNA)
RNA: GGGAGACCGGAAUUCAGAUUGUCCCCUGGCCUUAAAUCCCGUCGUAGCCACCA
DNA 1: CAATCTGAATTCCGGTCTCCC
DNA 2: TGGTGGCTACGACGGGATT
B2: UGCCCGG (DNA:RNA)
RNA: GGGAGACCGGAAUUCAGAUUGUCCUGCCCGGUUAAAUCCCGUCGUAGCCACCA
DNA 1: CAATCTGAATTCCGGTCTCCC
DNA 2: TGGTGGCTACGACGGGATT
B3: CCACUUC (DNA:RNA)
RNA: B1 RNA with U27A, G28C, G29U, C30U
DNA 1: CAATCTGAATTCCGGTCTCCC
DNA 2: TGGTGGCTACGACGGGATT
B4: AUGAUAC (DNA:RNA)
RNA: B1 RNA with C25A, C26U, U27G, G28A, G29U, C30A
DNA 1: CAATCTGAATTCCGGTCTCCC
DNA 2: TGGTGGCTACGACGGGATT
B5: ACGGCCA (DNA:RNA)
RNA: B1 RNA with C25A, U27G, G29C, C31A
DNA 1: CAATCTGAATTCCGGTCTCCC
DNA 2: TGGTGGCTACGACGGGATT
B6: UCUAAAC (DNA:RNA)
RNA: B1 RNA with C25U, G28A, G29A, C30A
DNA 1: CAATCTGAATTCCGGTCTCCC
DNA 2: TGGTGGCTACGACGGGATT
B7: GCCGUUC (DNA:RNA)
RNA: B1 RNA with C25G, U27C, G29U, C30U
DNA 1: CAATCTGAATTCCGGTCTCCC
DNA 2: TGGTGGCTACGACGGGATT
B8: UGGUCCC (DNA:RNA)
RNA: B2 RNA with C27G, C28U, G30C, G31C
DNA 1: CAATCTGAATTCCGGTCTCCC
DNA 2: TGGTGGCTACGACGGGATT
B9: AAGUCAC (DNA:RNA)
RNA: B1 RNA with C25A, C26A, U27G, G28U, G29C, C30A
DNA 1: CAATCTGAATTCCGGTCTCCC
DNA 2: TGGTGGCTACGACGGGATT

Target: T1, RBFOX1 RRM RbFoxmut (Fox-RRM*)
Assay: EMSA; HiTS-Eq, 1 nM pool, 10 min; buffer printed only for the single-RNA assays: 10 mM Tris pH 7.5, 150 mM NaCl, 3.4 mM EDTA, 0.001% NP-40, 30 C
Settings: tags: His6 N-terminal (pET28a); label: 5' 32P
Outline: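 These values rest on relative association constants, computed from read-count changes of each RNA species versus the control reaction and normalised to the cognate motif. Reads came from free RNA recovered by 8% native PAGE after purified RbFox RRM (wild type or mutant) at increasing concentrations was equilibrated for 10 min in 50 µL with 1 nM of a 5′-radiolabelled pool with 7 randomized nucleotides and DNA-annealed flanks.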

B1 was tested. Which binding signal did it give?
Its binding signal is 0.274 KA relative to UGCAUGU.

Which binding signal does the source give for B2 here?
Its binding signal is 0.112 KA relative to UGCAUGU.

B3 was tested. Which binding signal did it give?
The binding signal was 0.0839 KA relative to UGCAUGU.

How did the binding signal turn out when B4 was run?
Its binding signal is 0.139 KA relative to UGCAUGU.

B5 was tested. Which binding signal did it give?
Its binding signal is 0.089 KA relative to UGCAUGU.

B6 was tested. Which binding signal did it give?
The binding signal was 0.0642 KA relative to UGCAUGU.

For B7, which binding signal is on record?
The binding signal was 0.051 KA relative to UGCAUGU.

For B8, which binding signal is on record?
The binding signal was 0.145 KA relative to UGCAUGU.

Which binding signal does the source give for B9 here?
Its binding signal is 0.0691 KA relative to UGCAUGU.
